{"source": "PubChem BioAssay AID360", "about": "(National Center for Advancing Translational Sciences (NCATS), 2006)", "note": "The campaign covered roughly 48,000 compounds. About 550 (1.1%) were called active. Another 4% or so got no clear call; they are omitted. Rule as the data show it: active = potency below about 15 µM; inconclusive = mostly about 16 µM to 33 µM; inactive = weaker than that. Some of the results follow. Potency is read from the fitted curve at half-maximal effect."}
{"biological_target": "Lysosomal acid glucosylceramidase (Homo sapiens) (UniProt P04062)", "sequence (P04062 whole entry, looked up)": "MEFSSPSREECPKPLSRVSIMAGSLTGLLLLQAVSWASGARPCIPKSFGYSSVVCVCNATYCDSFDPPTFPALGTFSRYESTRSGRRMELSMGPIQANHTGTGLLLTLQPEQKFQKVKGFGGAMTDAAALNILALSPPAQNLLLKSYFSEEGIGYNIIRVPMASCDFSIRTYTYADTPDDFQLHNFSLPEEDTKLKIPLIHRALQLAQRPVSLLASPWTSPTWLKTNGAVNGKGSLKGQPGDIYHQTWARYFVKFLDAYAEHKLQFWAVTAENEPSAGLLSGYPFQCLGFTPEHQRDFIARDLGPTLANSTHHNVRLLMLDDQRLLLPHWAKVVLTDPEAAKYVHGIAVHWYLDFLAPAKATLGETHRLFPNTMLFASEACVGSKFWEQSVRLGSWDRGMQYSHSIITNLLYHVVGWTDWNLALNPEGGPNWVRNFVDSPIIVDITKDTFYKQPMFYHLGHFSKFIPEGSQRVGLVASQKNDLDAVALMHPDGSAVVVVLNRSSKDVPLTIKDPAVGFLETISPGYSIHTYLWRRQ", "assay": "Glucocerebrosidase;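 also: the screen sought inhibitors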", "conditions": "purified enzyme, resorufin glucoside fluorescence (screen aimed at inhibitors), 20 min", "outline": "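Normal human glucocerebrosidase (0.2 nM final) was assayed with resorufin β-D-glucopyranoside (30 uM final) in 50mM citric acid/KH2PO4, 10mM sodium taurocholate, 0.01% tween-20, pH 5.9. Compounds were titrated; fluorescence (Ex 548, Em 600) read after 20 min at RT.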"}
{"smiles": "COc1cc(NC(=O)c2ccco2)c(OC)cc1NC(=O)CSc1nnc(-c2cccs2)n1C", "Potency": "inactive: > 76.9 µM"}
{"smiles": "CCc1ccc2nc(NC(=O)c3cc(C)on3)sc2c1", "Potency": "inactive: > 76.9 µM"}
{"smiles": "COC(=O)c1ccccc1NC(=O)c1cc2n(n1)C(C(F)F)CC(C(F)F)N2", "note": "(configuration not stated)", "Potency": "inactive: > 76.9 µM"}
{"smiles": "Cc1cc(C(=O)NCc2ccccc2)no1", "Potency": "inactive: > 76.9 µM"}
{"smiles": "Cc1ccc(S(=O)(=O)Cn2nnnc2C(CC(C)C)N2CCN(c3ccc(F)cc3)CC2)cc1", "note": "(configuration not stated)", "Potency": "inactive: > 76.9 µM"}
{"smiles": "Cc1cnc(C(=O)OCC(=O)N2CCc3ccccc3C2)cn1", "Potency": "inactive: > 76.9 µM"}
{"smiles": "O=S(=O)(NCC(c1cccnc1)N1CCN(c2ccc(F)cc2)CC1)c1cc(F)ccc1F", "note": "(configuration not stated)", "Potency": "inactive: > 76.9 µM"}
{"smiles": "CCOC(=O)C1CCN(C(=O)Cc2c(C(=O)O)n(C)c3ccccc23)CC1", "Potency": "inactive: > 76.9 µM"}
{"smiles": "Cc1ccccc1C(=O)NC1CCN(Cc2nnnn2CCc2ccccc2)CC1", "Potency": "inactive: > 76.9 µM"}
{"smiles": "COC(=O)c1cccc(C(=O)Nc2cnc3ccccc3c2)n1", "Potency": "inactive: > 76.9 µM"}
{"smiles": "CCn1c(CNc2ccc(F)cc2)nnc1SCC(=O)N1CCCc2ccccc21", "Potency": "inactive: > 76.9 µM"}
{"smiles": "CCCCNC(=O)C(NS(=O)(=O)c1cccc2nsnc12)c1ccccc1", "note": "(configuration not stated)", "Potency": "inactive: > 76.9 µM"}
{"smiles": "CCC(=O)Nc1ccc(-c2nn3c(C)nnc3s2)cc1", "Potency": "inactive: > 76.9 µM"}
{"smiles": "CCC(=O)N1CCN(c2ccccc2NC(=O)COc2cccc(C)c2)CC1", "Potency": "inactive: > 76.9 µM"}
{"smiles": "CC(C)C(=O)Nc1ccc(C(=O)NCc2cccnc2)cc1", "Potency": "inactive"}
{"smiles": "COc1ccc(CNC(=O)Cc2ccc(OC)c(S(=O)(=O)N3CCOCC3)c2)cc1", "Potency": "inactive: > 76.9 µM"}
{"smiles": "COc1ccccc1/C=c1\\sc2nc(-c3ccncc3)nn2c1=O", "Potency": "inactive: > 76.9 µM"}
{"smiles": "CCOc1ccc(OCC)c(NC(=O)CSCC(=O)O)c1", "Potency": "inactive: > 76.9 µM"}
{"smiles": "COc1ccc(NC(=O)c2c(-c3ccccc3Cl)noc2C)c(OC)c1", "Potency": "inactive: > 76.9 µM"}
{"smiles": "COc1ccc(-c2nc(SC)n(S(=O)(=O)c3ccccc3)n2)cc1", "Potency": "inactive: > 76.9 µM"}
{"smiles": "Cc1cc(C)n2nc(SCC(=O)c3ccccc3)nc2n1", "Potency": "inactive: > 76.9 µM"}
{"smiles": "CCn1c(CCNC(=O)c2ccc(Cl)cc2)nnc1SCC(=O)NC1CCCC1", "Potency": "inactive: > 76.9 µM"}
{"smiles": "Cn1ncc2c(N3CCOCC3)ncnc21", "Potency": "inactive: > 76.9 µM"}
{"smiles": "COc1ccc(-c2csc(N3CCC(C(N)=O)(N4CCCCC4)CC3)n2)cc1", "Potency": "inactive: > 76.9 µM"}
{"smiles": "CCOC(=O)c1[nH]cc(-c2ccccc2)c1N1CCOCC1", "Potency": "inactive: > 76.9 µM"}
{"smiles": "CCn1c(SCC(=O)N2CCCc3ccccc32)nc2cccnc21", "Potency": "inactive: > 76.9 µM"}
{"smiles": "OCCN(Cc1ccccc1)Cc1cccc(C(F)(F)F)c1", "Potency": "inactive"}
{"smiles": "CCC(C)(C)n1nnnc1C(c1cc2ccc(C)cc2[nH]c1=O)N(Cc1cccnc1)Cc1ccco1", "note": "(configuration not stated)", "Potency": "inactive"}
{"smiles": "CC(=O)Nc1ccn(-c2ccccc2)n1", "Potency": "inactive: > 76.9 µM"}
{"smiles": "O=C(O)CCCCCNc1nc(=S)[nH]c2ccccc12", "Potency": "active: 7.73 µM"}
{"smiles": "Cc1nnc(N2CCN(Cc3ccccc3)CC2)[nH]c1=O", "Potency": "inactive: > 76.9 µM"}
{"smiles": "CCCn1nnc(NC(=O)c2ccc(Cl)cc2Cl)n1", "Potency": "inactive: > 76.9 µM"}
{"smiles": "Cc1ccc(OCc2nnc(SCCN3CCOCC3)n2C)cc1", "Potency": "inactive: > 76.9 µM"}
{"smiles": "Cc1cc(NC(=O)c2ccc3c(c2)C(=O)N(CCC(C)C)C3=O)no1", "Potency": "inactive: > 76.9 µM"}
{"smiles": "c1ccc2c(c1)oc1c(NCCCN3CCOCC3)ncnc12", "Potency": "inactive: > 76.9 µM"}
{"smiles": "Cc1ccc(C)c(/C(O)=C2\\C(=O)C(=O)N(CCCn3ccnc3)C2c2ccncc2)c1", "note": "(configuration not stated)", "Potency": "inactive: > 76.9 µM"}
{"smiles": "Cn1c(SCc2nc3ccccc3[nH]2)nnc1-c1ccccn1", "Potency": "inactive: > 76.9 µM"}
{"smiles": "Cc1cccc(NC(=O)C2CCN(S(=O)(=O)c3cccs3)CC2)n1", "Potency": "inactive: > 76.9 µM"}
{"smiles": "CCOc1ccc2[nH]c(C)c(CN3CCN(CC)CC3)c(=O)c2c1", "Potency": "inactive: > 76.9 µM"}
{"smiles": "O=C(C1CCC(C(=O)N2CCc3ccccc32)CC1)N1CCc2ccccc21", "note": "(configuration not stated)", "Potency": "inactive: > 76.9 µM"}
{"smiles": "COc1cc(C(=O)OCC(=O)Nc2cc(C)on2)ccc1OCc1ccccc1Cl", "Potency": "inactive: > 76.9 µM"}
{"smiles": "CCOC(=O)c1c(C)[nH]c(C(=O)OCC(=O)N2CC(C)OC(C)C2)c1C", "note": "(configuration not stated)", "Potency": "inactive: > 76.9 µM"}
{"smiles": "Cc1ccc(C(=O)CSc2ccccn2)cc1", "Potency": "inactive: > 76.9 µM"}
{"smiles": "COc1ccc(-n2c(=O)c3c4c(sc3n3c(C)nnc23)COC(C(C)C)C4)cc1", "note": "(configuration not stated)", "Potency": "inactive: > 76.9 µM"}
{"smiles": "CCCCn1c(SCc2c(C)noc2C)nc2cc(S(N)(=O)=O)ccc21", "Potency": "inactive: > 76.9 µM"}
{"smiles": "OCCn1nc2c3ccccc3nc-2n(-c2ccccc2)c1=S", "Potency": "inactive: > 76.9 µM"}
{"smiles": "CCS(=O)(=O)c1ccc2oc(SCC(=O)c3ccco3)nc2c1", "Potency": "inactive: > 76.9 µM"}
{"smiles": "O=C(NCCCNC1CCCCC1)c1ccc(/C=N/O)nc1", "Potency": "inactive: > 76.9 µM"}
{"smiles": "Cc1cccc(-n2nnc(C(=O)NCc3ccccc3)c2N)c1", "Potency": "inactive: > 76.9 µM"}
{"smiles": "COC(=O)c1ccccc1NC(=O)CSc1nnc(Cc2ccc(Cl)cc2)o1", "Potency": "inactive: > 76.9 µM"}
{"smiles": "COc1ccccc1-c1c(C)c(C)nc(N)c1C#N", "Potency": "inactive: > 76.9 µM"}
{"smiles": "CCSc1ccccc1C(=O)Nc1cccc(OC)c1", "Potency": "inactive: > 76.9 µM"}
{"smiles": "Cc1cc(Cl)c(S(=O)(=O)N2CCSCC2)cc1OCC(N)=O", "Potency": "inactive: > 76.9 µM"}
{"smiles": "COc1ccc(CN(C(=O)c2ccco2)c2ccc(Br)cc2)cc1OC", "Potency": "inactive: > 76.9 µM"}
{"smiles": "CCCCN1C(=O)C(O)(CC(=O)c2c(C)n[nH]c2C)c2cc(Br)ccc21", "note": "(configuration not stated)", "Potency": "inactive: > 76.9 µM"}
{"smiles": "CC(C)N(C(=O)Cn1cnc2c(cnn2-c2ccccc2Cl)c1=O)C(C)C", "Potency": "inactive: > 76.9 µM"}
{"smiles": "CCSc1ccccc1C(=O)N1CCN(Cc2ccc3c(c2)OCO3)CC1", "Potency": "inactive: > 76.9 µM"}
{"smiles": "Cc1ccc(C)c(N2CCN(C(=O)C3CCN(c4nc(C)cc(C)n4)CC3)CC2)c1", "Potency": "inactive: > 76.9 µM"}
{"smiles": "O=C(CCS(=O)(=O)c1ccc(Br)cc1)N1CCN(Cc2ccccc2)CC1", "Potency": "inactive: > 76.9 µM"}
{"smiles": "Nc1nc(CSc2nnc(-c3cccc(F)c3)n2-c2ccccc2)nc(N2CCOCC2)n1", "Potency": "inactive: > 76.9 µM"}
{"smiles": "O=C(O)CSC1c2ccccc2C(=O)N1Cc1ccccc1", "note": "(configuration not stated)", "Potency": "inactive: > 76.9 µM"}
{"smiles": "COC(=O)c1cc(CSc2nc3ccc(C)cc3[nH]2)oc1C", "Potency": "inactive: > 76.9 µM"}
{"smiles": "CSc1nsc(SCc2ccc(F)cc2)n1", "Potency": "inactive: > 76.9 µM"}
{"smiles": "CCCCCOc1ccc(C(=O)NC(CCC)C(=O)O)cc1", "note": "(configuration not stated)", "Potency": "inactive: > 76.9 µM"}
{"smiles": "CCOC(=O)CSc1nc2cc(C)ccc2cc1C#N", "Potency": "inactive: > 76.9 µM"}
{"smiles": "CCCCOc1ccc(OC(=O)c2cccnc2)cc1", "Potency": "inactive: > 76.9 µM"}
{"smiles": "CS(=O)(=O)N1CCN(c2ccccc2NC(=O)Cc2ccc(Cl)cc2)CC1", "Potency": "inactive: > 76.9 µM"}
{"smiles": "COc1ccc(CNc2nc3c(c(=O)n(Cc4ccc(Br)cc4)c(=O)n3C)n2C)cc1", "Potency": "inactive: > 76.9 µM"}
{"smiles": "CCn1c(SCC(=O)Nc2nccs2)nnc1-c1ccccc1", "Potency": "inactive: > 76.9 µM"}
{"smiles": "c1ccc(-n2nnnc2SCc2cn3ccccc3n2)cc1", "Potency": "inactive: > 76.9 µM"}
{"smiles": "COc1cccc(Oc2cncnc2-c2ccc(OC)cc2O)c1", "Potency": "inactive: > 76.9 µM"}
{"smiles": "COC(=O)CSc1nc(C(C)C)nc2ccccc12", "Potency": "inactive: > 76.9 µM"}
{"smiles": "O=c1o[nH]c(-c2ccccc2)c1C1=NCCCCC1", "Potency": "inactive: > 76.9 µM"}
{"smiles": "Cc1cccc(NC(=O)CSc2nnc(CSc3nc(C)cc(C)n3)n2Cc2ccco2)c1", "Potency": "inactive: > 76.9 µM"}
{"smiles": "CCOC(=O)C(C)Sc1nnc(-c2ccccc2O)n1Cc1ccccc1", "note": "(configuration not stated)", "Potency": "inactive: > 76.9 µM"}
{"smiles": "CCc1oc(C(=O)O)cc1CN(CC)CC", "Potency": "inactive: > 76.9 µM"}
{"smiles": "O=C(CCC1CCCC1)N1CCN(C2CCCC2)CC1", "Potency": "inactive: > 76.9 µM"}
{"smiles": "CCOc1ccccc1N(C(=O)c1snc(C(N)=O)c1N)C(C(=O)NCCC(C)C)c1ccco1", "note": "(configuration not stated)", "Potency": "inactive: > 76.9 µM"}
{"smiles": "Cn1nc(C(C)(C)C)cc1C(=O)Nc1nc2c(s1)C(=O)CC(C)(C)C2", "Potency": "inactive: > 76.9 µM"}
{"smiles": "CCOc1ccc(-c2nnc(-c3ccncc3)o2)cc1", "Potency": "inactive: > 76.9 µM"}
{"smiles": "CC1CN(c2oc(-c3ccco3)nc2C#N)CC(C)O1", "note": "(configuration not stated)", "Potency": "inactive: > 76.9 µM"}
{"smiles": "Cc1ccc(/C=c2\\sc3nc(-c4ccccc4Br)nn3c2=O)o1", "Potency": "inactive: > 76.9 µM"}
{"smiles": "O=C(COC(=O)C1(c2ccccc2)CC1)N1CCN(c2ccc(F)cc2)CC1", "Potency": "inactive: > 76.9 µM"}
{"smiles": "CC1=C(Sc2nc3ccccc3[nH]2)C(=O)NC(C)(C)C1", "Potency": "inactive: > 76.9 µM"}
{"smiles": "Cc1ccccc1OC(C)C(=O)NC1CCCC1", "note": "(configuration not stated)", "Potency": "inactive: > 76.9 µM"}
{"smiles": "CCC(=O)NCCc1cc2cc(C)c(C)cc2[nH]c1=O", "Potency": "inactive: > 76.9 µM"}
{"smiles": "CC(C)COP(=O)(c1ccc(N(C)C)cc1)C(O)c1ccncc1", "note": "(configuration not stated)", "Potency": "inactive: > 76.9 µM"}
{"smiles": "CCSc1ccc2nnc(-c3ccc(F)cc3)n2n1", "Potency": "inactive: > 76.9 µM"}
{"smiles": "CCOC(=O)c1ccccc1NC(=O)CSc1nnc(Cc2cccn2C)n1-c1ccc(F)cc1", "Potency": "inactive"}
{"smiles": "CCCCOc1ccc(/C(O)=C2/C(=O)C(=O)N(CCN(C)C)C2c2ccc(O)c(OC)c2)cc1", "note": "(configuration not stated)", "Potency": "inactive: > 76.9 µM"}
{"smiles": "CC(=O)c1cccc(NC(=O)Nc2ccc(C(=O)N3CCOCC3)cc2)c1", "Potency": "inactive: > 76.9 µM"}
{"smiles": "CCN1CSC(=S)N(Cc2ccc(OC)cc2)C1", "Potency": "inactive: > 76.9 µM"}
